Experimental data as given in US20230272023A1 (HUMAN CELL, published 2023).

T1: p75^NTR receptor immobilized on the Biacore chip (UniProt P08138 29-250)
T1 sequence (looked up): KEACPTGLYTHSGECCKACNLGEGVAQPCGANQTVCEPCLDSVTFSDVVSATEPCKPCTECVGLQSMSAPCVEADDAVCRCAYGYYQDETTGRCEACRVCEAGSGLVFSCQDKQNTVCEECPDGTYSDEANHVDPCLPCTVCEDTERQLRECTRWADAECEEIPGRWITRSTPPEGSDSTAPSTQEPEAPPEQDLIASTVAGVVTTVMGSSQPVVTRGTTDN


What was measured:
[1] = molecular target: T2, human TrkA on TF1 erythroleukemic cells (human, UniProt P04629 33-796); experiment: cell-based or functional assay
[2] = molecular target: T2, human TrkA on TF1 erythroleukemic cells; experiment: cell-based or functional assay; remark: listed apart in the source
[3] = molecular target: T2, human TrkA on TF1 erythroleukemic cells; experiment: cell-based or functional assay; remark: listed apart in the source
[4] = molecular target: T2, human TrkA on TF1 erythroleukemic cells; experiment: cell-based or functional assay; remark: listed apart in the source
[5] = molecular target: T1, p75^NTR receptor immobilized on the …; experiment: SPR, Biacore 3000; against NGF wt
Method: (§1) The binding experiments were performed on Biacore 3000 at 25° C. Receptors were directly immobilized by direct immobilization using EDC/NHS amine coupling kit and GE protocol. The receptor was coated until the desired RU. The unoccupied active sites on the chip were quenching by flowing 1 M ethanol amine. […] Data were analyzed using Biacore 3000 bia evaluation software (Biacore) using the values after reference subtraction. KD was determined by applying either local (for scouting) or global (full kinetics) 1:1 Langmuir fitting model. Full kinetics was performed with the range of analyte at a 2-fold serial dilution and flowed over the ligand from lowest to highest concentration range.

[6] = molecular target: T1, p75^NTR receptor immobilized on the …; experiment: SPR, Biacore 3000; Table 4 column Binding affinity (nM), P75^NTR
Method: as §1

[7] = molecular target: T1, p75^NTR receptor immobilized on the …; experiment: SPR, Biacore 3000, 25 C, receptor amine-coupled on chip, NGF mutein as analyte, 1:1 Langmuir
Method: as §1

T2 sequence (P04629 33-796): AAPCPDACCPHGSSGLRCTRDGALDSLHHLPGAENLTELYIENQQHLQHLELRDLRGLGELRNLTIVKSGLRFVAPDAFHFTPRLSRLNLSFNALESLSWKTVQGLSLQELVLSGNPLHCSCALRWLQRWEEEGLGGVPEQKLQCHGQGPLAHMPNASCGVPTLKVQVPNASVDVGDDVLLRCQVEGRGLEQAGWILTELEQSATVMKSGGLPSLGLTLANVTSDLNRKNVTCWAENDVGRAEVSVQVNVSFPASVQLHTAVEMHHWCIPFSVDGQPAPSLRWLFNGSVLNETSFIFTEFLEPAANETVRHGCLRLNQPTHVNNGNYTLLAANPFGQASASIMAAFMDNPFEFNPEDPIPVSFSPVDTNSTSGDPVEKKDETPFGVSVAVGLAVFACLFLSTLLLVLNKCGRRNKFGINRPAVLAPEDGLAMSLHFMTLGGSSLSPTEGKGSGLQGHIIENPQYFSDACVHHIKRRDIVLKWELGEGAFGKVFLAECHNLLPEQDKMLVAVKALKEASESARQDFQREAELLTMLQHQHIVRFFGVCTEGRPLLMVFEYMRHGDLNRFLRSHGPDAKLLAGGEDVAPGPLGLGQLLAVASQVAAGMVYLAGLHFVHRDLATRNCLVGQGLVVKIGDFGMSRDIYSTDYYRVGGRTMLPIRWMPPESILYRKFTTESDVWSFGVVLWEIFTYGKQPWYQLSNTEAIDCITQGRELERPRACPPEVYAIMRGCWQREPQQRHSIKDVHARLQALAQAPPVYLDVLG

Binder	EC50 in TF-1 proliferation assay, protein kept 7 days at 4° C. [1]	EC50 in TF-1 proliferation assay, protein kept 7 days at 55° C. [1]	EC50 in TF-1 proliferation assay, 4° C. [2]	EC50 in TF-1 proliferation assay, after storage at 55° C. [2]	also measured
NGF R100E (ligand) not shown	3.99 ng/mL	5.23 ng/mL	–	–	–
NGF K32A (ligand) not shown	–	–	1.26 ng/mL	1.12 ng/mL	–
NGF K32D (ligand) not shown	–	–	4.79 ng/mL	5.91 ng/mL	EC50 for stimulating TF1 cell proliferation, fold increase against the wildtype [3]: 2 fold
NGF K34E (ligand) not shown	2.79 ng/mL	2.89 ng/mL	–	–	–
NGF R69A (ligand) not shown	106 ng/mL	–	–	–	–
NGF K34D (ligand, Mutein of mature human NGF, expressed in HEK293 cells) not shown	1.08 ng/mL	0.92 ng/mL	1.01 ng/mL	1.55 ng/mL	EC50 for stimulating TF1 cell proliferation, fold reduction against the wildtype [3]: 3 fold; TrkA receptor Bio-activity [4]: 1.01 ng/mL; fold reduction of binding affinity against wildtype [5]: 27 fold; Kd [6]: 8.62 nM; Kd [7]: 8.62 nM; koff [7]: 0.0235 s⁻¹; kon [7]: 2.73e+06 M⁻¹ s⁻¹
NGF K34A (ligand) not shown	1.5 ng/mL	1.8 ng/mL	–	–	EC50 for stimulating TF1 cell proliferation, fold reduction against the wildtype [3]: 2 fold
NGF R100D (ligand) not shown	6.84 ng/mL	17.1 ng/mL	–	–	–
NGF R69E (ligand) not shown	53.9 ng/mL	–	–	–	–
